Reference: patent US20130165489A1, “Small Molecule Modulators of HIV-1 Capsid Stability and Methods Thereof” (The Trustees of the University of Pennsylvania, priority 2010, published 2013)

Tests used:
[1] = system: target cells (U87 CD4-CXCR4); experiment: LDH release cytotoxicity, target cells; type: cell-based
From the text: Moreover, these compounds appeared to be working at different stages of the viral life-cycle—one at an early post-entry event (CMPD-A) and the other at an assembly or post-integration event in HIV-1 replication (CMPD-D).

[2] = system: HIV-1 pseudotyped with the envelope glycoprotein from murine leukemia virus; experiment: Single-round infection assay, HIV-1 pseudotyped with A-MLV envelope
Description: Using the Effectene transfection reagent (Qiagen), 293T human embryonic kidney cells were cotransfected with plasmids expressing the pCMVΔP1ΔenvpA HIV-1 Gag-Pol packaging construct, the wild-type or mutant HIV-1YU2 envelope glycoproteins or the envelope glycoproteins of the control amphotropic murine leukemia virus (A-MLV), and the firefly luciferase-expressing vector at a DNA ratio of 1:1:3 μg. For the production of viruses pseudotyped with the A-MLV glycoprotein, a rev-expressing plasmid was added. The single-round, replication-defective viruses in the supernatants were harvested 24-30 hours after transfection, filtered (0.45 μm), aliquoted, and frozen at −80° C. until further use. The reverse transcriptase (RT) activities of all viruses were measured as described previously (Rho et al., 1981, Virology 112:355-60). […]
The HSB method (Kortagere et al., 2009, Pharm. Res. 26:1001-11; Kortagere et al., 2010, Environ. Health Perspect. 118(10):1412-17; Kortagere et al., 2006, J. Comput. Aided Mol. Des. 20:789-802; Kortagere et al., 2010, J. Chem. Inf. Model 50:840-49 and Peng et al., 2009, Bioorg. Med. Chem. 17:6442-50) was used to design small-molecule inhibitors targeted to the NTD-NTD hexameric interface of HIV-1 CA. […] The docked complexes are then scored based on a number of physicochemical parameters to indicate high-ranking molecules. […]

[3] = Description: From this initial screen, one compound 4,4′-[dibenzo[b,d]furan-2,8-diylbis(5-phenyl-1H-imidazole-4,2-diyl)]dibenzoic acid, referred to as CMPD-A, was identified as having anti-HIV activity of 33.3±0.31 μM on the infection of recombinant luciferase-containing HIV-1 viruses (HIV-1NL4-3 backbone) pseudotyped with the envelope protein from HIV-1YU-2. […] Although production of pseudovirions by transfection and the ability to analyze inhibition in a single-round infection are advantageous for addressing the inhibitory effect of a given compound, this type of assay cannot address the effects of multiple rounds of infection and cell-to-cell spread on the efficacy of the test compounds. CMPD-A was evaluated for inhibition of replication of fully infections virus (FIG. 8B). The compound was assessed against fully infectious HIV-1IIIB replicating in the P4-R5 MAGI cell line. […] The P4-R5 MAGI cell line is a HeLa derivative and is therefore not a natural target cell type, only being able to support infection by HIV-1 by overexpression of CD4, CXCR4 and CCR5. Moreover, HIV-1IIIB is a laboratory adapted virus, having been multiply passaged in culture, and lacks some of the accessory proteins. CMPD-A was evaluated for inhibition of a primary isolate, HIV-192BR030, replicating in primary PBMCs (FIG. 8C).
[4] = system: recombinant luciferase-containing HIV-1 viruses (HIV-1NL4-3 backbone) pseudotyped with the envelope protein from HIV-1HxBc2; experiment: Single-round infection assay, infection of U87 CD4-CXCR4 target cells in presence of compound
From the text: A single-round infection assay was used in order to determine whether the compounds identified by the HSB method affected early events (such as uncoating) or late events (such as assembly) or both. Details of the experimental procedure have been published (Rossi et al., Retrovirology 2008, 5:89; Cocklin et al., J. Virol. 2007, 81(7):3645-3648; Martin-Garcia et al., 2006, Virology 2006, 346(1):169-179; Martin-Garcia et al., 2005, J. Virol. 2005, 79(11):6703-6713).
Effects on assembly were identified by incubating the viral producer cells in the presence of the compound. Supernatants containing virus (that encodes for firefly luciferase as a reporter gene) were then diluted 10-fold and used to infect the target cells (U87 CD4-CXCR4). Compound-induced aberrant assembly was then manifested as a decrease in infectivity of the target cells, as compared to those infected with virus from untreated cells. Similarly, uncoating effects could be determined by producing virus in the absence of compound, then infecting target cells in the presence of compounds (U87 CD4-CXCR4).

| SMILES | LDH release versus untreated cells [1] | inhibition of A-MLV envelope pseudotyped HIV-1 [2] | availability and stability in the media [3] | antiretroviral activity, early post-entry event [4] |
| --- | --- | --- | --- | --- |
| O=C(O)c1ccc(-c2nc(-c3ccc4oc5ccc(-c6nc(-c7ccc(C(=O)O)cc7)[nH]c6-c6ccccc6)cc5c4c3)c(-c3ccccc3)[nH]2)cc1 [CMPD-A, 4,4′-(4,4′-(dibenzo[b,d]furan-2,8-diyl)bis(5-phenyl-1H-imidazole-4,2-diyl))dibenzoic acid] | Neither CMPD-A nor CMPD-D promoted LDH release | inhibiting HIV-1 pseudotyped with the envelope glycoprotein from murine leukemia virus | available and stable in the media | significant antiretroviral activity |
| Cc1ccc(C(C(=O)NC2CCCCC2)N(Cc2ccccc2Cl)C(=O)c2snc(C(=O)NC3CCCCC3)c2N)o1 (centres unmarked) [CMPD-D, 4-amino-N5-(2-chlorobenzyl)-N3-cyclohexyl-N5-(2-(cyclohexylamino)-1-(5-methylfuran-2-yl)-2-oxoethyl)isothiazole-3,5-dicarboxamide] | Neither CMPD-A nor CMPD-D promoted LDH release |  |  |  |
